Patent US20240384006A1 (Amgen, published 2024)
Residue numbers refer to the chain shown, from its start. Numbers in names are those of the source. Values belong to the binder of their own block, whether it stands above or below them.

Assays:
[1] = molecular target: T1, cyno CD20 (cyno, UniProt M4ZHZ6 1-297); assay: flow cytometry on CHO cells expressing cyno CD20, one site-specific binding fit, mean of three
T1 construct: whole, on cells; also called cy CD20
T1 sequence: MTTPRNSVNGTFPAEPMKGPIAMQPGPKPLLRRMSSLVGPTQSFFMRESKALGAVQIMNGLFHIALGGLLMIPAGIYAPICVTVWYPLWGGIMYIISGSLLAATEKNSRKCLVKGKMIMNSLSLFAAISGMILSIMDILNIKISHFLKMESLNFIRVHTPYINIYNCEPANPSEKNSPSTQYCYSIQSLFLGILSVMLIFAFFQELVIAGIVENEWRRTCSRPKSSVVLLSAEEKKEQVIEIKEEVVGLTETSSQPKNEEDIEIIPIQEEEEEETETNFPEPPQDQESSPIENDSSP
Method: (§1) Cell-based affinity of CD20 CD22 dual targeting antigen-binding molecules was determined by nonlinear regression (one site—specific binding) analysis. CHO cells expressing human CD20, cyno CD20, human CD22 or cyno CD22 were incubated with decreasing concentrations of CD20 CD22 dual targeting antigen-binding molecules (up to 800 nM, step 1:2 or 1:3, 11 steps) for 16 h at 4° C. Bound CD20 CD22 dual targeting antigen-binding molecules were detected with Alexa Fluor 488-conjugated AffiniPure Fab Fragment Goat Anti-Human IgG (H+L). Fixed cells were stained with DRAQ5, Far-Red Fluorescent Live-Cell Permeant DNA Dye and signals were detected by fluorescence cytometry. Respective equilibrium dissociation constant (Kd) values were calculated with the one site specific binding evaluation tool of the GraphPad Prism software. Mean Kd values and affinity gaps were calculated with Microsoft Excel.
(§2) Cell-based affinities of CD20 CD22 dual targeting antigen-binding molecules on target-transfected CHO cells were determined by nonlinear regression (one site—specific binding) analysis. Mean Kd values were calculated from three independent measurements. Affinity gaps were determined by dividing the cyno Kd by the human Kd.

[2] = molecular target: T2, human CD22 (human, UniProt P20273 20-847); assay: cell-based or functional assay
T2 sequence (looked up): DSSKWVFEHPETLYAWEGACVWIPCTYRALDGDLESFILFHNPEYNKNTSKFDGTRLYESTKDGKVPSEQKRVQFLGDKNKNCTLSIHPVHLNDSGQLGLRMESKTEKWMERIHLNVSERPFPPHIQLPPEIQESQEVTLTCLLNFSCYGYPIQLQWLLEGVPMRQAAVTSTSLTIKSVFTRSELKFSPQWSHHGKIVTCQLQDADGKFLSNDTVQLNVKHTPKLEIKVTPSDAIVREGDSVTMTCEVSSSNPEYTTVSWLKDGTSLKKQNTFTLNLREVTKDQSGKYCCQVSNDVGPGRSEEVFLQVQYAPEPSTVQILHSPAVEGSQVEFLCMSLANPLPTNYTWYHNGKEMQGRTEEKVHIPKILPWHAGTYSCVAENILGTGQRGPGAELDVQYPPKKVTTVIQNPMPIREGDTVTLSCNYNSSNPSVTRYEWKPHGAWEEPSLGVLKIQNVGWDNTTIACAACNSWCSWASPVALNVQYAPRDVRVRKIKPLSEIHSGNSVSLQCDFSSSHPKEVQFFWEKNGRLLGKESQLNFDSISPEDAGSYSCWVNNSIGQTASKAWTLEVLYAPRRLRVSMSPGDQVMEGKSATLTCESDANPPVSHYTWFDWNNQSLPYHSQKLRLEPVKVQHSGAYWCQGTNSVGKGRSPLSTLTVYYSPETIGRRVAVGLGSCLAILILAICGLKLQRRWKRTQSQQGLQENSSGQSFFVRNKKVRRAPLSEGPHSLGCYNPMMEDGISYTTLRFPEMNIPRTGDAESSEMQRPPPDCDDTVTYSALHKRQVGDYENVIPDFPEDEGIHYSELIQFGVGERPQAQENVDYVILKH

[3] = molecular target: T3, human CD20 (human, UniProt P11836 1-297); assay: cell-based or functional assay
T3 sequence (looked up): T1 sequence with P25S, L31F, A51T, V157A, R217K, S226N, V227I, V239T

[4] = molecular target: T2, human CD22; assay: flow cytometry on CHO cells expressing human CD22, one site-specific binding fit, mean of three
Method: as §1, §2

[5] = molecular target: T3, human CD20; assay: flow cytometry on CHO cells expressing human CD20, one site-specific binding fit, mean of three
Method: as §1, §2

[6] = molecular target: T4, cyno CD22 (cyno); assay: flow cytometry on CHO cells expressing cyno CD22, one site-specific binding fit, mean of three
T4 construct: whole, on cells; also called cy CD22
Method: as §1, §2

[7] = molecular target: T1, cyno CD20; assay: cyno Kd divided by human Kd, cell-based affinity on CHO cells
Method: as §1, §2

[8] = molecular target: T4, cyno CD22; assay: as above
Method: as §1, §2

Kd [1]: 1700 pM | Kd [4]: 12400 pM | Kd [5]: 1840 pM | Kd [6]: 2850 pM | Affinity gap Kdcy/Kdhu CD20 [7]: 0.92 | Affinity gap Kdcy/Kdhu CD22 [8]: 0.23
B1: CD20 82-A3 CC × CD22 97K-A8 CC × I2E × scFc (U2H) (bispecific antibody)
chain: EVQLVESGGGLVQPDRSLRLSCAASGFTFRDYAMHWVRQAPGKCLEWVSGIAWNSDSIGYADSVKGRFTISRDNAKNSLFLQMHSLRPEDTALYFCAKDTLYGSGSPRAFDIWGQGTMVTVSSGGGGSGGGGSGGGGSEIVLTQSPATLSVSPGERATLSCRASQSVNNNLAWYQQKPGQAPRLLIYGASTRATGIPARFSGSGSGTEFTLTISRLEPEDFAVYYCQQSNNWPITFGCGTRLEIKSGGGGSQLQLQESGPGLVKPSETLSLTCFVSGGSISNSDYFWGWIRQPPGKCLEWIGTIYYSGRTYYNPSLKSRVTISVDTSKNQFSLMLSSVTAVDTAVYYCARYQYGSFDYWGQGTLVTVSSGGGGSGGGGSGGGG[in this place about 100 residues]FGCGTKVEIRSGGGGSEVQLVESGGGLVQPGGSLKLSCAASGFTFNKYAINWVRQAPGKGLEWVARIRSKYNNYATYYADAVKDRFTISRDDSKNTVYLQMNNLKTEDTAVYYCARAGNFGSSYISYWAYWGQGTLVTVSSGGGGSGGGGSGGGGSQTVVTQEPSLTVSPGGTVTIT[in this place about 80 residues]FGSGTKLTVLGGGG[in this place human IgG1 Fc with R292C N297G V302C (EU numbers)]GGGGSGGGGSGGGGSGGGGSGGGGSGGGGS[in this place human IgG1 Fc with R292C N297G V302C (EU numbers)]
notes: Single chain: anti-CD20 scFv, anti-CD22 scFv, anti-CD3 scFv (I2E), scFc
EC50, 48-hour FACS based cytotoxicity assay, Oci-Ly 1 CD20 k.o. #A5 [2]: 77.2 pM | EC50, 48-hour FACS based cytotoxicity assay, Oci-Ly 1 CD22 k.o. #A1 [3]: 0.35 pM

Kd [1]: 29600 pM | Kd [4]: 220 pM | Kd [5]: 31900 pM | Kd [6]: 2290 pM | Affinity gap Kdcy/Kdhu CD20 [7]: 0.93 | Affinity gap Kdcy/Kdhu CD22 [8]: 10.4
B2: CD20 82-G2 CC × CD22 53-D6 CC × I2E × scFc (F9P) (bispecific antibody)
chain: EVQLVESGGGLVQPGRSLRLSCAASGFTFHDYTMHWVRQAPGKCLEWVSGISWNTGTIGYADSVKGRFTISRDNAKNSLYLQMNSLRAEDTALYYCVKDAFYGGDYYYNYGMDVWGHGTTVTVSSGGGGSGGGGSGGGGSEIVLTQSPATLSVSPGERATLSCRASQSVNNNLAWYQQKPGQAPRLLIYGASTRATGIPARFSGSGSGTDFTLTISSLQSDDFAVYYCQQYNNWPLTFGCGTKVEIKSGGGGSQVQLVQSGAEVKKPGASVKVSCKASGYSFTSYGITWVRQAPGQCLEWMGWISAYNGNTIYAQKLQGRVTMTTDTSTSTAYMELRSLRSDDTAVYYCVRDSNHEDFWGQGTLVTVSSGGGGSGGGGSGGGGSEIVLTQSPATLSVSPGERATLSCRASQSVSSNLAWYQQKPGQAPRLLIYGASTRATGIPARFSGSGSGTEFTLTISSLQSEDFAVYYCQQYHTWPPVTFGCGTKVEIKSGGGGSEVQLVESGGGLVQPGGSLKLSCAASGFTFNKYAINWVRQAPGKGLEWVARIRSKYNNYATYYADAVKDRFTISRDDSKNTVYLQMNNLKTEDTAVYYCARAGNFGSSYISYWAYWGQGTLVTVSSGGGGSGGGGSGGGGSQTVVTQEPSLTVSPGGTVTIT[in this place about 80 residues]FGSGTKLTVLGGGG[in this place human IgG1 Fc with R292C N297G V302C (EU numbers)]GGGGSGGGGSGGGGSGGGGSGGGGSGGGGS[in this place human IgG1 Fc with R292C N297G V302C (EU numbers)]
notes: as for B1
EC50, 48-hour FACS based cytotoxicity assay, Oci-Ly 1 CD20 k.o. #A5 [2]: 4.35 pM | EC50, 48-hour FACS based cytotoxicity assay, Oci-Ly 1 CD22 k.o. #A1 [3]: 4.2 pM

Kd [1]: 1320 pM | Kd [4]: 120 pM | Kd [5]: 2630 pM | Kd [6]: 1080 pM | Affinity gap Kdcy/Kdhu CD20 [7]: 0.5 | Affinity gap Kdcy/Kdhu CD22 [8]: 9
B3: CD20 82-A3 CC × CD22 53-G9 CC × I2E × scFc (L4L) (bispecific antibody)
chain: EVQLVESGGGLVQPDRSLRLSCAASGFTFRDYAMHWVRQAPGKCLEWVSGIAWNSDSIGYADSVKGRFTISRDNAKNSLFLQMHSLRPEDTALYFCAKDTLYGSGSPRAFDIWGQGTMVTVSSGGGGSGGGGSGGGGSEIVLTQSPATLSVSPGERATLSCRASQSVNNNLAWYQQKPGQAPRLLIYGASTRATGIPARFSGSGSGTEFTLTISRLEPEDFAVYYCQQSNNWPITFGCGTRLEIKSGGGGSQVQLVQSGAEVKKPGESLKISCKGSGYSFTSYGISWVRQAPGQCLEWMGWISAYNGNTIYAQKLQGRVTMTTDTSTSTAYMELRRLRSDDTAVYYCARDPGVTGDDYWGQGTLVTVSSGGGGSGGGGSGGGGSEIVLTQSPATLSVSPGERATLSCRASLSVSSNLAWYQQKPGQAPRLLIYGASTRATGIPARFSGSGSGTEFTLTISSLQSEDFAVYFCQQYHSWPALTFGCGTKVEIKSGGGGSEVQLVESGGGLVQPGGSLKLSCAASGFTFNKYAINWVRQAPGKGLEWVARIRSKYNNYATYYADAVKDRFTISRDDSKNTVYLQMNNLKTEDTAVYYCARAGNFGSSYISYWAYWGQGTLVTVSSGGGGSGGGGSGGGGSQTVVTQEPSLTVSPGGTVTIT[in this place about 80 residues]FGSGTKLTVLGGGG[in this place human IgG1 Fc with R292C N297G V302C (EU numbers)]GGGGSGGGGSGGGGSGGGGSGGGGSGGGGS[in this place human IgG1 Fc with R292C N297G V302C (EU numbers)]
notes: as for B1
EC50, 48-hour FACS based cytotoxicity assay, Oci-Ly 1 CD20 k.o. #A5 [2]: 5.27 pM | EC50, 48-hour FACS based cytotoxicity assay, Oci-Ly 1 CD22 k.o. #A1 [3]: 0.03 pM

Kd [1]: 11100 pM | Kd [4]: 350 pM | Kd [5]: 22400 pM | Kd [6]: 580 pM | Affinity gap Kdcy/Kdhu CD20 [7]: 0.5 | Affinity gap Kdcy/Kdhu CD22 [8]: 1.66
B4: CD20 82-D2 CC × CD22 53-G9 CC × I2E × scFc (Z1W) (bispecific antibody)
chain: EVQLLESGGGLVQPGGSLRLSCAASGFTFSGHAMTWVRQAPGKCLEWLSTIYGSGGYTYYAGSVKGRFTISRDNSKNTLYLQMNSLRAEDTAVYYCAKVGGYDWYFDLWGRGTLVTVSSGGGGSGGGGSGGGGSSYELTQPPSVSVALGQTARITCGGHNIGSKNVHWYQQKPGQAPVLVIYRDTNRPSGIPERFSGSNSGNTATLTISRAQAGDEADYYCQLWDSTTVVFGCGTKLTVLSGGGGSQVQLVQSGAEVKKPGESLKISCKGSGYSFTSYGISWVRQAPGQCLEWMGWISAYNGNTIYAQKLQGRVTMTTDTSTSTAYMELRRLRSDDTAVYYCARDPGVTGDDYWGQGTLVTVSSGGGGSGGGGSGGGGSEIVLTQSPATLSVSPGERATLSCRASLSVSSNLAWYQQKPGQAPRLLIYGASTRATGIPARFSGSGSGTEFTLTISSLQSEDFAVYFCQQYHSWPALTFGCGTKVEIKSGGGGSEVQLVESGGGLVQPGGSLKLSCAASGFTFNKYAINWVRQAPGKGLEWVARIRSKYNNYATYYADAVKDRFTISRDDSKNTVYLQMNNLKTEDTAVYYCARAGNFGSSYISYWAYWGQGTLVTVSSGGGGSGGGGSGGGGSQTVVTQEPSLTVSPGGTVTIT[in this place about 80 residues]FGSGTKLTVLGGGG[in this place human IgG1 Fc with R292C N297G V302C (EU numbers)]GGGGSGGGGSGGGGSGGGGSGGGGSGGGGS[in this place human IgG1 Fc with R292C N297G V302C (EU numbers)]
notes: as for B1
EC50, 48-hour FACS based cytotoxicity assay, Oci-Ly 1 CD20 k.o. #A5 [2]: 5.23 pM | EC50, 48-hour FACS based cytotoxicity assay, Oci-Ly 1 CD22 k.o. #A1 [3]: 21.8 pM
